Measured values taken from PubChem BioAssay AID686978 (National Center for Advancing Translational Sciences (NCATS), 2013).
Out of some 420,000 compounds screened, about 64,000 (15%) were called active. The inconclusive results got no clear call from the source; some entries with a clear call stand among them for comparison. The call rests on the fitted dose curve; in most records, active means well fitted inhibition curve with a large enough effect; inconclusive means small, poorly fitted or top-dose-only effect; inactive means flat fitted curve, though single readings scatter. Potencies of inconclusive entries are left out as doubtful fits.

Test: qHTS for Inhibitors of human tyrosyl-DNA phosphodiesterase 1 (TDP1): qHTS in cells in absence of CPT; further: nearly all actives have a fitted effect of over 55% in size
Settings: DT40 Tdp1-/- hTDP1 cells, no CPT, ATP luminescence, 48 h; activity change, negative = growth inhibition: at 46.2 µM (top of the series) unless noted
In short: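 Chicken DT40 Tdp1-/- cells stably complemented with human TDP1 were seeded at 400 cells/well with DMSO in place of 20 nM camptothecin. After compound pinning, cells grew at least 48 hr at 37 °C; viability read by CellTiter-Glo luminescence.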
On the % scale 0 is the no-effect control and ±100 the full control effect; potency means the concentration at half of the fitted maximal effect; tags describe the fitted curve by direction and shape.

Which Potency does the source give for `CS(=O)(=O)Nc1ccc(C(=O)N2CCN(c3ccccc3)CC2)cc1` here?
Its Potency is “inactive”.

With `Cc1c(-c2nsc(NC(=O)c3cccs3)n2)nnn1-c1ccc(Br)cc1` as the compound, how does the Potency read?
The Potency was inconclusive [inhibitor, single point].

With `CC1C(=O)N(Cc2ccc([N+](=O)[O-])cc2)c2ccccc2N1C(=O)c1c(F)cccc1F` (stereo unspecified) as the compound, how does the Potency read?
Its Potency is active: 16.4 µM.

For `O=C(NCC1CCCO1)C1CC(c2ccc(Cl)c(Cl)c2)=NO1` (stereo unspecified), which Potency is on record?
The Potency was inconclusive [inhibitor, single point].

With `Cc1onc(-c2c(F)cccc2Cl)c1C(=O)OCc1nnc(-c2ccccc2)o1` as the compound, how does the Potency read?
Its Potency is inconclusive [inhibitor, single point].

With `CC(C)c1cccc(C(C)C)c1NC(=O)CNCC(O)c1ccccc1` (stereo unspecified) as the compound, how does the Potency read?
Its Potency is “inactive”.

With `Cc1ccc(CNC(=O)CN2C(=O)C3CCCCN3c3ccc(C(=O)N4CCCC4)cc32)cc1` (stereo unspecified) as the compound, how does the Potency read?
Its Potency is “inactive”.

For `COc1ccc(-c2cn3ccccc3n2)cc1OC`, which Potency is on record?
Its Potency is inconclusive [inhibitor, partial curve].

With `O=C(NCc1ccccc1Cl)c1ccc2c(O)c(S(=O)(=O)c3ccccc3)c(=O)[nH]c2c1` as the compound, how does the Potency read?
Its Potency is “inactive”.

Which Potency does the source give for `COc1ccc(Cl)cc1C(=O)Nc1ccc(-c2nnc3n2CCCCC3)cc1` here?
The Potency was inconclusive [inhibitor, full curve].

With `O=C(NCCc1ccccc1)C(=O)NCC1CCCN1S(=O)(=O)c1cccs1` (stereo unspecified) as the compound, how does the Potency read?
Its Potency is inconclusive [inhibitor, single point].

For `O=c1[nH]cnc2scc(-c3ccc(Br)cc3)c12`, which Potency is on record?
Its Potency is inconclusive [inhibitor, partial curve].

Which Potency does the source give for `COc1cccc(NC(=O)C2CCN(C(=O)N3CC(C)Oc4ccccc43)CC2)c1` (stereo unspecified) here?
The Potency was inconclusive [inhibitor, single point].

With `CCOc1ccc(C(C)=O)cc1COC(=O)c1cc([N+](=O)[O-])ccc1N1CCOCC1` as the compound, how does the Potency read?
The Potency was inconclusive [inhibitor, single point].

For `CCOC(=O)C(C(=O)Nc1ccccn1)C1CCCCC1` (stereo unspecified), which Potency is on record?
The Potency was “inactive”.

For `C[C@H]1CN([C@@H](C)CO)C(=O)CCCn2cc(nn2)CO[C@@H]1CN(C)C(=O)Nc1ccnc(N2CCOCC2)c1`, which Potency is on record?
The Potency was “inactive”.

For `COc1ccc(OC)c(-c2nc(C(=O)NCCCN3CCOCC3)cc3c2[nH]c2ccccc23)c1`, which Potency is on record?
Its Potency is active: 23.1 µM.

Which Potency does the source give for `COc1ccc(CNCc2ccccc2)cc1COc1ccc(NC(C)=O)cc1` here?
The Potency was active: 10 µM.

Which Potency does the source give for `CCN(CC)CCn1c2c(c(SCC(=O)Nc3cccc4ccccc34)nc1=O)CCC2` here?
The Potency was inconclusive [inhibitor, single point].

For `COc1ccccc1Nc1ccc(C(=O)NC2CCCCC2)cn1`, which Potency is on record?
The Potency was inconclusive [inhibitor, single point].

For `CSc1ccccc1OCc1cc(C(=O)NC2CCc3ccccc32)no1` (stereo unspecified), which Potency is on record?
Its Potency is “inactive”.

With `Cc1ccc(/C=N/N=C2/NC(=O)C(CC(=O)Nc3ccccc3)S2)o1` (stereo unspecified) as the compound, how does the Potency read?
Its Potency is “inactive”.

With `Cc1ccc(C)c(NC(=O)CN(CCc2ccccc2)S(=O)(=O)c2ccccc2)c1` as the compound, how does the Potency read?
The Potency was inconclusive [inhibitor, single point].

With `Cn1c(=O)c(C(=O)CN2CCN(S(=O)(=O)c3ccccc3)CC2)c(N)n(Cc2ccccc2)c1=O` as the compound, how does the Potency read?
Its Potency is inconclusive [inhibitor, partial curve, poor fit].

With `CCN(CC)C(=O)[C@H]1CC(CC(=O)NC/C=C(\C)CCC=C(C)C)C(=O)N2CCc3c([nH]c4ccc(OC)cc34)[C@]12C` (stereo partly specified) as the compound, how does the Potency read?
Its Potency is inconclusive [inhibitor, single point].

Which Potency does the source give for `CC(=O)c1ccc(NC(=O)CCc2c(C)nc3cc(-c4ccc(Cl)cc4)nn3c2C)cc1` here?
The Potency was active: 6.51 µM.

For `CC(C)(C)c1cc(=O)n2c(C#N)c(C#N)nc2[nH]1`, which Potency is on record?
Its Potency is “inactive”.

For `CC(C(=O)NCCS(=O)(=O)c1ccc(Br)cc1)S(=O)(=O)c1ccc(Cl)cc1` (stereo unspecified), which Potency is on record?
Its Potency is inconclusive [inhibitor, partial curve].

With `c1ccc2nc(NN=C3CCCCC3)ccc2c1` as the compound, how does the Potency read?
The Potency was inconclusive [inhibitor, single point].

With `Cc1noc(C)c1COc1ccc(C(=O)OCC(=O)Nc2ccc(S(N)(=O)=O)cc2)cc1` as the compound, how does the Potency read?
Its Potency is active: 16.4 µM.

For `CC(C(=O)Nc1ccccc1-c1ccccc1)N1CCN(Cc2ccccc2)CC1` (stereo unspecified), which Potency is on record?
The Potency was inconclusive [inhibitor, single point].

With `Cc1nnc2sc(SCc3cccc(Cl)c3)nn2c1=O` as the compound, how does the Potency read?
The Potency was inconclusive [inhibitor, single point].

For `COc1cccc(-n2c(SCc3ccccc3C)nc3c([nH]c4ccccc43)c2=O)c1`, which Potency is on record?
Its Potency is inconclusive [inhibitor, single point].

For `CCC(C)C(NC(=O)c1ccc(Cl)cc1)C(=O)Nc1cccnc1` (stereo unspecified), which Potency is on record?
Its Potency is “inactive”.

Which Potency does the source give for `Cc1cccc(C(=O)N2CCN(S(=O)(=O)c3ccc4c(c3)OCCCO4)CC2)c1[N+](=O)[O-]` here?
The Potency was inconclusive [inhibitor, single point].

Which Potency does the source give for `Cc1ccccc1NC(=O)Cc1nc(-c2ccc3ccccc3c2)cs1` here?
Its Potency is inconclusive [inhibitor, partial curve, poor fit].

For `CCS(=O)(=O)Nc1cc2c3c(c1)CCC(=O)N3CCC2`, which Potency is on record?
Its Potency is “inactive”.

Which Potency does the source give for `CCC(=O)Nc1cc(-c2nc3ncccc3o2)ccc1Cl` here?
The Potency was “inactive”.

With `COc1ccc(N2CCN(C(=O)COC(=O)CNC(=O)c3ccc(C)cc3)CC2)cc1` as the compound, how does the Potency read?
Its Potency is “inactive”.

For `CC(C)(C)c1ccc(C(=O)N2CCN(S(=O)(=O)c3ccc(Br)s3)CC2)cc1`, which Potency is on record?
Its Potency is inconclusive [inhibitor, single point].

Which Potency does the source give for `CCc1ccccc1NCC(=O)Nc1ccc(Cl)c(C(F)(F)F)c1` here?
The Potency was active: 16.4 µM.

Which activity change, negative = growth inhibition does the source give for `CCOC(=O)Cn1c(=NC(=O)C(C)(C)C)sc2cc([N+](=O)[O-])ccc21` here?
Its activity change, negative = growth inhibition is inconclusive: -30.9% [inhibitor].

With `CC(C)Oc1cccc(C(=O)C2CCCN(C(=O)c3ccccn3)C2)c1` (stereo unspecified) as the compound, how does the Potency read?
The Potency was active: 10.3 µM.

For `CCN(CC)CCn1c(=S)[nH]c2ncccc2c1=O`, which Potency is on record?
The Potency was “inactive”.

For `Cc1ccc(NC(=O)CC(C)CC(=O)NCc2ccccc2)cc1Cl` (stereo unspecified), which Potency is on record?
Its Potency is inconclusive [inhibitor, partial curve].

Which Potency does the source give for `COC(=O)C(C)Oc1cc(OC(C)C(=O)OC)c2c(-c3ccccc3)cc(=O)oc2c1` (stereo unspecified) here?
The Potency was “inactive”.

For `Cc1onc(-c2c(F)cccc2Cl)c1C(=O)Nc1cc(S(=O)(=O)N2CCCCC2)ccc1O`, which Potency is on record?
Its Potency is active: 16.4 µM.

For `CC(C)CCCCCCc1ccc(O)cc1`, which Potency is on record?
The Potency was inconclusive [inhibitor, single point].

Which Potency does the source give for `Cc1cc(C)cc(OCC(=O)NCC2(N(C)C)CCCCC2)c1` here?
Its Potency is “inactive”.

With `Cc1cc(C)nc(SCCC(=O)Nc2ccc(F)cc2)n1` as the compound, how does the Potency read?
Its Potency is “inactive”.

With `Cc1cc(C(=O)Nc2c(C)n(C)n(-c3ccccc3)c2=O)cs1` as the compound, how does the Potency read?
The Potency was “inactive”.

Which Potency does the source give for `COc1ccc(NC(=O)c2sc(=O)n(Cc3ccccc3C#N)c2C)cc1OC` here?
Its Potency is inconclusive [inhibitor, single point].

For `COCCCn1c(SCc2ccccc2)nc2cc(OC)c(OC)cc2c1=N`, which Potency is on record?
Its Potency is inconclusive [inhibitor, single point].

With `COc1ccccc1NC(=O)c1ccccc1C(=O)Nc1ccccc1OC` as the compound, how does the Potency read?
The Potency was inconclusive [inhibitor, single point].

For `CCOC(=O)C1=C(CS(=O)(=O)c2ccc(F)cc2)NC(=O)NC1c1ccc(OCC)c(OC)c1` (stereo unspecified), which Potency is on record?
The Potency was inconclusive [inhibitor, single point].

Which Potency does the source give for `CC(C)Oc1ccc(S(=O)(=O)N2CCCCC2)cc1NC(=O)C1=NN(c2ccccc2)C(=O)CC1` here?
Its Potency is inconclusive [inhibitor, single point].

For `COc1ccc(C(=O)OC/C(O)=C(\C#N)c2nc3ccccc3[nH]2)cc1S(=O)(=O)N1CCOCC1`, which Potency is on record?
Its Potency is “inactive”.

Which Potency does the source give for `O=C1CC(c2ccccc2Cl)=NN(c2ncnc3ccccc23)C1=O` here?
The Potency was “inactive”.

Which Potency does the source give for `Cc1ccn(CCC(=O)N2CCCC(N3CCN(c4ccccc4C)CC3)C2)n1` (stereo unspecified) here?
The Potency was inconclusive [inhibitor, single point].

Which Potency does the source give for `C[C@@H]1CN([C@H](C)CO)C(=O)c2cc(NC(=O)Cc3ccccc3)ccc2O[C@H]1CN(C)Cc1ccc(Oc2ccccc2)cc1` here?
The Potency was inconclusive [inhibitor, single point].

For `CCCCNC(=O)NC12CC3CC(CC(C3)C1)C2`, which Potency is on record?
Its Potency is inconclusive [inhibitor, single point].

For `COc1ccccc1-n1c(=O)c2c3c(sc2n2c(SC(C)C)nnc12)CCC3`, which Potency is on record?
The Potency was inconclusive [inhibitor, single point].

Which Potency does the source give for `O=C1CN(c2nc(-c3ccccc3)c3ccccc3n2)c2ccccc2N1` here?
Its Potency is inconclusive [inhibitor, single point].

With `Cc1cc(NC(=O)CSc2nnc(-c3c[nH]c4ccccc34)n2C)no1` as the compound, how does the Potency read?
Its Potency is “inactive”.

For `Cc1ccc(S(=O)(=O)N2CCOCC(=O)NCCOCCNC(=O)COCC2)cc1`, which Potency is on record?
The Potency was “inactive”.

For `CSc1nc(N)nc2c1ncn2C1OC(CO)CC1O` (stereo unspecified), which Potency is on record?
Its Potency is inconclusive [inhibitor, single point].

With `CC(=O)N(Cc1ccccc1)c1nc(-c2ccccc2)cs1` as the compound, how does the Potency read?
Its Potency is inconclusive [inhibitor, single point].

For `COc1ccc(C(CNC(=O)COc2cccc(C(F)(F)F)c2)N2CCCC2)cc1` (stereo unspecified), which Potency is on record?
The Potency was inconclusive [inhibitor, single point].

Which Potency does the source give for `COc1cc(N)c(C(O)c2nccc3cc(OC)c(OC)cc23)cc1OC` (stereo unspecified) here?
The Potency was inconclusive [inhibitor, single point].

For `Cc1ccc(S(=O)(=O)N(C)c2ccc(OCc3cccc(C)c3)cc2)cc1`, which Potency is on record?
The Potency was active: 18.4 µM.

Which Potency does the source give for `O=c1[nH][nH]c2ccccc2c1=O` here?
Its Potency is “inactive”.
